Experimental data from patent US20240376214A1, “ANTI-C-MET ANTIBODIES AND ANTIBODY-DRUG CONJUGATES” (BYONDIS B.V., priority 2021, published 2024).

Experiments:
[1] = system: MAXF574 invasive ductal breast carcinoma xenograft; assay: Patient-derived breast cancer xenograft model MAXF574; assay type: in vivo, mice; details: single injection 3 mg/kg, FIG. 7
Protocol: The in vivo efficacy of the three humanized anti-c-Met ADCs ADC3a, ADC3b, and ADC3c was evaluated in a patient-derived xenograft model of invasive ductal breast carcinoma, MAXF574 in the B6-Ces1ctm1.1Loc.CB17 Prkdc^scid mouse strain. These mice lack exon 5 of the Ces1c gene leading to the abolishment of the function of the enzyme. The MET gene is not amplified in this tumor; immunohistochemical staining confirmed moderate to high expression of c-Met on the cell surface.
Tumor fragments were obtained from xenografts in serial passage in nude mice. After removal from the donor mice, tumors were cut into fragments (3-4 mm edge length) and placed in PBS containing 10% penicillin/streptomycin. Recipient animals were anesthetized by inhalation of isoflurane and received unilateral tumor implants subcutaneously in the flank. Tumor growth was monitored twice weekly. Tumor volumes were determined by two-dimensional measurement with a digital caliper. Tumor volumes were calculated according to the formula: tumor volume=(1×w^2)×0.5, where l=length and w=width (in mm) of the tumor. […] The mice were dosed the same day or the following day with a single injection of 3 mg/kg ADC3a, ADC3b, or ADC3c. A vehicle and non-binding control ADC were included.

[2] = assay type: in vivo, cynomolgus monkey
Protocol: The in vivo toxicity of ADC3b was evaluated in male and female cynomolgus monkeys. Monkeys (5 M+5F/group) were dosed with ADC3b (5, 15 or 25 mg/kg Q3W, i.v. infusion).
It should be noted that in these normal tissues c-Met is not activated as no c-Met phosphorylation is observed in these tissues. Despite this extensive expression the tolerability of ADC3b is surprising. The highest non-severely toxic dose (HNSTD) for ADC3b is estimated to be 15 mg/kg/Q3 weeks. Given that many of the toxic effects of ADCs are observed in (normal) tissues expressing the target (Masson Hinrichs and Dixit, AAPS J. 2015, 17, 1055-1064), it is surprising that the c-Met targeting ADC ADC3b is so well tolerated.

B1: ADC3b: mAb3b site-specifically conjugated (HC 41C) to vc-seco-DUBA, DAR 1.9 (conjugate)
heavy: QVQLVQSGAEVKKPGASVKVSCKASGYTFTDYYLNWVRQACGQGLEWMGLIFPGNDKTEYSEKFKGRVTLTTDTSISTAYMELSSLTSDDTALYYCSGGDYGGFVYWGQGTLVTVSS[sequence of human IgG1 constant region not given]
light: DIQMTQSPSSLSASVGDRVTISCGASENIYGALNWYQQQPGKAPKVLIFGATNLADGVPSRFSGSGSGTDFTLTISSLQPEDFATYYCQNVLSSPLTFGQGTKLEIKRTVAAPSVFIFPPSDEQLKSGTASVVCLLNNFYPREAKVQWKVDNALQSGNSQESVTEQDSKDSTYSLSSTLTLSKADYEKHKVYACEVTHQGLSSPVTKSFNRGEC
- anti-tumor activity [1]: highest anti-tumor activity
- toxicity profile ([2]; 4-cycle pivotal toxicity and PK study): remarkably mild toxicity profile
- highest non-severely toxic dose (HNSTD) ([2]; 4-cycle study, 5, 15 or 25 mg/kg Q3W i.v. infusion, estimated): 15 mg/kg/Q3 weeks
